# Reference: the supplement of paper PMC11166567
# Some of the results follow.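 The calls were made as follows: active = permutation test q below 0.05 after Benjamini-Hochberg correction; inactive = q of 0.05 or more.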
# Tested on: U2OS
# Test: mean average precision of replicate retrieval against DMSO controls (Cell Painting phenotypic activity) (fraction (0-1)); higher = stronger, more reproducible morphological phenotype distinct from DMSO; extreme values may be limits of the assay
# Details: 48 h; 5 µM
# 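Also: cosine similarity of well-level aggregated Cell Painting profiles ranks each compound's replicate wells against DMSO wells, four replicate plates, significance from 100,000 rank shuffles.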
row,Compound,mean average precision
1,CCOC(=O)Nc1ccc(NCc2ccc(F)cc2)nc1N,active: 0.637
2,O=C1NC(=O)c2cc(Nc3ccc(F)cc3)c(Nc3ccc(F)cc3)cc21,active: 0.495
3,CC(C)c1cc(-c2n[nH]c(=O)n2-c2ccc3c(ccn3C)c2)c(O)cc1O,active: 1
4,Nc1cc(C(F)(F)F)c(-c2cc(N3CCOCC3)nc(N3CCOCC3)n2)cn1,active: 1
5,Cn1cnc([N+](=O)[O-])c1Sc1ncnc2nc[nH]c12,inactive: 0.219
6,Nc1ncnc2c1c(-c1cnc3[nH]ccc3c1)nn2C1CCCC1,active: 1
